This is one part of the list. The full chains were built here from the parent and the listed change. Values near 0.05 are background.
B1: TEV protease; numbered along this chain (parent)
chain: MGESLFKGPRDYNPISSSICHLTNESDGHTTSLYGIGFGPFIITNKHLFRRNNGTLVVQSLHGVFKVKDTTTLQQHLVDGRDMIIIRMPKDFPPFPQKLKFREPQREERICLVTTNFQTKSMSSMVSDTSCTFPSGDGIFWKHWIQTKDGQCGSPLVSTRDGFIVGIHSASNFTNTNNYFTSVPKNFMELLTNQEAQQWVSGWRLNADSVLWGGHKVFMVKPEEPFQPVKEATQL

Variants of: B1
Assay: raw area under fraction-flipped curve 0-4 h after induction (AUC4h, not background-subtracted), DNA-recorder readout of cleavage of the substrate (dimensionless); higher = more cleavage of the substrate by the protease variant
Details: temperature: 34 °C; time window: 0-4 h after rhamnose induction
Procedure: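 In vivo DNA recorder in E. coli TOP10(DE3) ΔrhaA at 34 °C. Each TEVp single-site mutant (parent TEVp 0) is paired with a single-site variant of the 7-mer TEVs (canonical ENLYFQ|S). The substrate sits between flexible linkers in a Bxb1-sfGFP-TEVs-SsrA fusion, so cleavage stabilises Bxb1 and speeds flipping of a recombination array, read by NGS. The value is the raw area under the fraction-flipped curve over 0-4 h after rhamnose induction (AUC4h), with ≥20 reads per time point. It is not background-subtracted; inactive controls average about 0.047.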
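Further: Bxb1 expression induced with 0.2% (w/v) L-rhamnose at OD600 near 0.5, cultures sampled hourly, flipped fraction per protease–substrate barcode pair counted by paired-end Illumina sequencing.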

MGESLFKGPRDYNPISSSICHLTNESDGHTTSLYGIGFGPFIITNKHLFRRNNGTLVVQSLHGVFKVKDTTTLQQHLVDGRDMIIIRMPKDFPPFPQKLKFREPQREERICLVTTNFQTKSMSSMVSDTSCTFPSGDGIFWKHWIQTKDGQCGSPLVSTRDGFIVGIHSASNFTNTNNYFTSVPRNFMELLTNQEAQQWVSGWRLNADSVLWGGHKVFMVKPEEPFQPVKEATQL [K185R]
area with substrate ENLAFQS: 0.101 | area with substrate ENLDFQS: 0.0697 | area with substrate ENLEFQS: 0.0488 | area with substrate ENLFFQS: 0.0905 | area with substrate ENLHFQS: 0.0819 | area with substrate ENLIFQS: 0.0843 | area with substrate ENLKFQS: 0.107 | area with substrate ENLNFQS: 0.0647 | area with substrate ENLPFQS: 0.0634 | area with substrate ENLSFQS: 0.0722

MGESLFKGPRDYNPISSSICHLTNESDGHTTSLYGIGFGPFIITNKHLFRRNNGTLVVQSLHGVFKVKDTTTLQQHLVDGRDMIIIRMPKDFPPFPQKLKFREPQREERICLVTTNFQTKSMSSMVSDTSCTFPSGDGIFWKHWIQTKDGQCGSPLVSTRDGFIVGIHSASNFTNTNNYFTSVPYNFMELLTNQEAQQWVSGWRLNADSVLWGGHKVFMVKPEEPFQPVKEATQL [K185Y]
area with substrate ENLAFQS: 0.0501 | area with substrate ENLCFQS: 0.0759 | area with substrate ENLDFQS: 0.0502 | area with substrate ENLEFQS: 0.0585 | area with substrate ENLFFQS: 0.0779 | area with substrate ENLHFQS: 0.0795 | area with substrate ENLKFQS: 0.069 | area with substrate ENLLFQS: 0.0686 | area with substrate ENLNFQS: 0.0818 | area with substrate ENLPFQS: 0.0562 | area with substrate ENLQFQS: 0.0783 | area with substrate ENLRFQS: 0.075 | area with substrate ENLSFQS: 0.0586 | area with substrate ENLVFQS: 0.17 | area with substrate ENLWFQS: 0.0687

MGESLFKGPRDYNPISSSICHLTNESDGHTTSLYGIGFGPFIITNKHLFRRNNGTLVVQSLHGVFKVKDTTTLQQHLVDGRDMIIIRMPKDFPPFPQKLKFREPQREERICLVTTNFQTKSMSSMVSDTSCTFPSGDGIFWKHWIQTKDGQCGSPLVSTRDGFIVGIHSASNFTNTNNYFTSVPKNKMELLTNQEAQQWVSGWRLNADSVLWGGHKVFMVKPEEPFQPVKEATQL [F187K]
area with substrate ENLAFQS: 0.0542 | area with substrate ENLDFQS: 0.0486 | area with substrate ENLIFQS: 0.0435 | area with substrate ENLKFQS: 0.0735 | area with substrate ENLMFQS: 0.0403 | area with substrate ENLNFQS: 0.0596 | area with substrate ENLPFQS: 0.0483 | area with substrate ENLQFQS: 0.0597 | area with substrate ENLSFQS: 0.0395

MGESLFKGPRDYNPISSSICHLTNESDGHTTSLYGIGFGPFIITNKHLFRRNNGTLVVQSLHGVFKVKDTTTLQQHLVDGRDMIIIRMPKDFPPFPQKLKFREPQREERICLVTTNFQTKSMSSMVSDTSCTFPSGDGIFWKHWIQTKDGQCGSPLVSTRDGFIVGIHSASNFTNTNNYFTSVPKNFFELLTNQEAQQWVSGWRLNADSVLWGGHKVFMVKPEEPFQPVKEATQL [M188F]
area with substrate ENLAFQS: 0.0583 | area with substrate ENLDFQS: 0.0647 | area with substrate ENLFFQS: 0.123 | area with substrate ENLKFQS: 0.0826 | area with substrate ENLNFQS: 0.063 | area with substrate ENLPFQS: 0.0743 | area with substrate ENLQFQS: 0.0545 | area with substrate ENLSFQS: 0.0589

MGESLFKGPRDYNPISSSICHLTNESDGHTTSLYGIGFGPFIITNKHLFRRNNGTLVVQSLHGVFKVKDTTTLQQHLVDGRDMIIIRMPKDFPPFPQKLKFREPQREERICLVTTNFQTKSMSSMVSDTSCTFPSGDGIFWKHWIQTKDGQCGSPLVSTRDGFIVGIHSASNFTNTNNYFTSVPKNFGELLTNQEAQQWVSGWRLNADSVLWGGHKVFMVKPEEPFQPVKEATQL [M188G]
area with substrate ENLAFQS: 0.0667 | area with substrate ENLCFQS: 0.0768 | area with substrate ENLDFQS: 0.0549 | area with substrate ENLFFQS: 0.107 | area with substrate ENLHFQS: 0.0837 | area with substrate ENLIFQS: 0.077 | area with substrate ENLKFQS: 0.0714 | area with substrate ENLMFQS: 0.0767 | area with substrate ENLNFQS: 0.0595 | area with substrate ENLTFQS: 0.0644

MGESLFKGPRDYNPISSSICHLTNESDGHTTSLYGIGFGPFIITNKHLFRRNNGTLVVQSLHGVFKVKDTTTLQQHLVDGRDMIIIRMPKDFPPFPQKLKFREPQREERICLVTTNFQTKSMSSMVSDTSCTFPSGDGIFWKHWIQTKDGQCGSPLVSTRDGFIVGIHSASNFTNTNNYFTSVPKNFQELLTNQEAQQWVSGWRLNADSVLWGGHKVFMVKPEEPFQPVKEATQL [M188Q]
area with substrate ENLAFQS: 0.0445 | area with substrate ENLCFQS: 0.0629 | area with substrate ENLDFQS: 0.0743 | area with substrate ENLFFQS: 0.0784 | area with substrate ENLHFQS: 0.0627 | area with substrate ENLIFQS: 0.105 | area with substrate ENLLFQS: 0.0595 | area with substrate ENLPFQS: 0.0645 | area with substrate ENLSFQS: 0.0561 | area with substrate ENLWFQS: 0.0787

MGESLFKGPRDYNPISSSICHLTNESDGHTTSLYGIGFGPFIITNKHLFRRNNGTLVVQSLHGVFKVKDTTTLQQHLVDGRDMIIIRMPKDFPPFPQKLKFREPQREERICLVTTNFQTKSMSSMVSDTSCTFPSGDGIFWKHWIQTKDGQCGSPLVSTRDGFIVGIHSASNFTNTNNYFTSVPKNFMEVLTNQEAQQWVSGWRLNADSVLWGGHKVFMVKPEEPFQPVKEATQL [L190V]
area with substrate ENLAFQS: 0.0678 | area with substrate ENLDFQS: 0.0632 | area with substrate ENLEFQS: 0.0745 | area with substrate ENLFFQS: 0.0954 | area with substrate ENLGFQS: 0.0598 | area with substrate ENLIFQS: 0.0638 | area with substrate ENLKFQS: 0.0755 | area with substrate ENLNFQS: 0.0642 | area with substrate ENLPFQS: 0.0595 | area with substrate ENLQFQS: 0.0455 | area with substrate ENLSFQS: 0.0425 | area with substrate ENLWFQS: 0.0642

MGESLFKGPRDYNPISSSICHLTNESDGHTTSLYGIGFGPFIITNKHLFRRNNGTLVVQSLHGVFKVKDTTTLQQHLVDGRDMIIIRMPKDFPPFPQKLKFREPQREERICLVTTNFQTKSMSSMVSDTSCTFPSGDGIFWKHWIQTKDGQCGSPLVSTRDGFIVGIHSASNFTNTNNYFTSVPKNFMELHTNQEAQQWVSGWRLNADSVLWGGHKVFMVKPEEPFQPVKEATQL [L191H]
area with substrate ENLAFQS: 0.054 | area with substrate ENLDFQS: 0.0675 | area with substrate ENLFFQS: 0.07 | area with substrate ENLKFQS: 0.0492 | area with substrate ENLMFQS: 0.099 | area with substrate ENLNFQS: 0.0582 | area with substrate ENLPFQS: 0.0516 | area with substrate ENLQFQS: 0.0565 | area with substrate ENLRFQS: 0.0616 | area with substrate ENLTFQS: 0.0317 | area with substrate ENLVFQS: 0.0645 | area with substrate ENLWFQS: 0.0615

MGESLFKGPRDYNPISSSICHLTNESDGHTTSLYGIGFGPFIITNKHLFRRNNGTLVVQSLHGVFKVKDTTTLQQHLVDGRDMIIIRMPKDFPPFPQKLKFREPQREERICLVTTNFQTKSMSSMVSDTSCTFPSGDGIFWKHWIQTKDGQCGSPLVSTRDGFIVGIHSASNFTNTNNYFTSVPKNFMELNTNQEAQQWVSGWRLNADSVLWGGHKVFMVKPEEPFQPVKEATQL [L191N]
area with substrate ENLAFQS: 0.0568 | area with substrate ENLDFQS: 0.0489 | area with substrate ENLFFQS: 0.0541 | area with substrate ENLLFQS: 0.0451 | area with substrate ENLPFQS: 0.0327 | area with substrate ENLRFQS: 0.046 | area with substrate ENLSFQS: 0.0578 | area with substrate ENLTFQS: 0.0449 | area with substrate ENLVFQS: 0.0519 | area with substrate ENLWFQS: 0.0378

Source: the supplement of paper PMC12217912
